{
  "source": "PubChem BioAssay AID504467",
  "about": "(National Center for Advancing Translational Sciences (NCATS), 2011)",
  "note": "Out of some 330,000 compounds screened, about 7,700 (2.3%) were called active. Another 26% or so got no clear call; they are omitted. Calls come from the whole dose curve; as a rule, active = well fitted inhibition curve with a large enough effect; inconclusive = small, poorly fitted or top-dose-only effect, or effect the other way; inactive = flat fitted curve, though single readings scatter. Only a part is listed here, and it is no random draw. % is set by controls: 0 for no effect and ±100 for the full control effect; potency is the fitted concentration of half-maximal effect.",
  "data": [
    {"assay": "qHTS screen for small molecules that inhibit ELG1-dependent DNA repair in human embryonic kidney (HEK293T) cells expressing luciferase-tagged ELG1; note: nearly all actives have a fitted effect of over 55% in size", "conditions": "HEK293T ELG1-luciferase reporter, luminescence, 16 h, DNA damage induced by 5-fluorouridine; series mostly up to 46.1 µM; activity change, negative = inhibition: at the top concentration", "method_in_brief": "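HEK293T cells expressing luciferase-tagged ELG1 (2,000/well) received 5-Fluorouridine plus compound or DMSO for 16 hr at 37 °C. Luciferase was read by ONE-Glo luminescence after 30 min at room temperature.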", "values": [
      {"smiles": "C=CC[C@@H](CC(=O)N[C@@H](CO)Cc1ccccc1)C(=O)N[C@@H](COC(=O)[C@@H](CC=C)CC(=O)OC(C)(C)C)Cc1c[nH]c2ccccc12", "activity change, negative = inhibition": "inactive: -21.4%"},
      {"smiles": "C=CC[C@H](CC(=O)NCCO)C(=O)N[C@@H](C)COC(=O)[C@H](CC=C)CC(=O)OC(C)(C)C", "activity change, negative = inhibition": "inactive: 3.15%"},
      {"smiles": "Cc1ccc(S(=O)(=O)N2CCCC2C(=O)NCc2ccccc2Cl)cc1", "note": "(stereo not drawn)", "activity change, negative = inhibition": "inactive: -15.1%"},
      {"smiles": "OCC[C@H]1C[C@H](O)[C@@H](O)[C@@]2(Cc3ccccc3CO2)O1", "activity change, negative = inhibition": "inactive: 7.99%"},
      {"smiles": "O=C(NCc1ccccc1)C1=C[C@H](c2ccc(C(F)(F)F)cc2)C[C@H](OCc2ccc(CO)cc2)O1", "activity change, negative = inhibition": "inactive: -16%"},
      {"smiles": "OCC[C@H]1C[C@@H](O)[C@H](O)[C@]2(CCCc3ccccc3O2)O1", "activity change, negative = inhibition": "inactive: 24.5%"},
      {"smiles": "C=CC[C@H](CC(=O)NCCO)C(=O)N[C@@H](COC(=O)[C@H](CC=C)CC(=O)OC(C)(C)C)Cc1c[nH]c2ccccc12", "activity change, negative = inhibition": "inactive: 18.6%"},
      {"smiles": "COC(=O)C1=C(O)/C(=C/c2ccc(OCC(=O)Nc3ccccc3)cc2)N=C1C", "activity change, negative = inhibition": "inactive: -3.66%"},
      {"smiles": "CCC[C@@H]1C[C@@H](C(=O)NC(C(C)Cl)[C@H]2O[C@H](SC)[C@H](O)[C@@H](O)[C@H]2O)N(C)C1", "note": "(stereo partly drawn)", "activity change, negative = inhibition": "inactive: -5.9%"},
      {"smiles": "COc1ccc(S(=O)(=O)N(C)C[C@H]2Oc3ccc(NC(=O)Nc4c(C)noc4C)cc3C(=O)N([C@H](C)CO)C[C@@H]2C)cc1", "activity change, negative = inhibition": "inactive: 1.85%"},
      {"smiles": "COc1ccc(NC(=O)N(C)C[C@@H]2Oc3c(NC(=O)Nc4c(C)noc4C)cccc3C(=O)N([C@@H](C)CO)C[C@@H]2C)cc1", "activity change, negative = inhibition": "inactive: 11.5%"},
      {"smiles": "COC(=O)c1ccc(OCC2c3cc(OC)c(OC)cc3CCN2C(C)=O)cc1", "note": "(stereo not drawn)", "Potency": "active: 6.51 µM"},
      {"smiles": "O=C(C1=C[C@@H](C2CCCCC2)C[C@@H](OCCCCO)O1)N1CCOCC1", "activity change, negative = inhibition": "inactive: 8.68%"},
      {"smiles": "C[C@H]1COC(=O)[C@@H](Cc2ccc(F)cc2)C/C=C\\C[C@@H](CC(=O)NCCO)C(=O)N1", "activity change, negative = inhibition": "inactive: 14%"},
      {"smiles": "CCN(CC)c1ccc(N2C(=O)/C(=C/c3cccnc3)SC2=S)cc1", "activity change, negative = inhibition": "inactive: -12.3%"},
      {"smiles": "C[C@]12C(=O)N(c3ccc(Br)cc3)C(=O)N1[C@H]1c3ccccc3OC[C@@H]1[C@H]2c1ccccc1", "activity change, negative = inhibition": "inactive: 7.58%"},
      {"smiles": "O=C(N/C(=C/c1ccccc1)C(=O)N1CCCCCC1)c1ccccc1", "activity change, negative = inhibition": "inactive: -1.38%"},
      {"smiles": "COc1ccc(O)c(/C=N/NC(=O)c2ccc(OCc3cccc(Br)c3)cc2)c1", "Potency": "active: 3.66 µM"},
      {"smiles": "O=C(COCc1ccccc1)N[C@@H]1c2ccccc2CC[C@H]1OCc1ccccc1", "activity change, negative = inhibition": "inactive: -10.9%"},
      {"smiles": "COc1ccc(/C=C2\\SC(=O)N(CCC(=O)Nc3ccccc3)C2=O)cc1OC", "activity change, negative = inhibition": "inactive: -9.64%"},
      {"smiles": "CC(C)(O)CC[C@@H](O)[C@](C)(O)[C@H]1CC[C@@]2(O)C3=CC(=O)[C@@H]4C[C@@H](O)[C@@H](O)C[C@]4(C)C3CC[C@]12C", "note": "(stereo partly drawn)", "activity change, negative = inhibition": "inactive: 7.89%"},
      {"smiles": "COC(=O)[C@@H]1C[C@]2(OC(=O)c3ccccc3)C=CC(=O)C[C@@H]2N1C(=O)OCc1ccccc1", "Potency": "active: 14.6 µM"},
      {"smiles": "CCOC(=O)[C@H]1[C@H]2COc3cc(OC)ccc3[C@@H]2N2C(=O)N(c3cccc(F)c3)C(=O)[C@@]12C", "activity change, negative = inhibition": "inactive: -6.72%"},
      {"smiles": "O=c1cc(-c2ccc(O)c(O)c2)oc2cc(O)c(C3OC(CO)C(O)C(O)C3O)c(O)c12", "note": "(stereo not drawn)", "activity change, negative = inhibition": "inactive: 8.75%"},
      {"smiles": "BrC(=C\\c1ccccc1)/C=N/N1CCN(Cc2ccccc2)CC1", "activity change, negative = inhibition": "inactive: -10.9%"},
      {"smiles": "O=C(NCc1ccco1)/C(=C\\c1ccco1)NC(=O)c1ccc(Br)o1", "activity change, negative = inhibition": "inactive: 1.52%"},
      {"smiles": "CC1(C)CC[C@]2(C(=O)O)CC[C@]3(C)C(=CCC4[C@@]5(C)CC[C@H](O)C(C)(C)C5CC[C@]43C)C2C1", "note": "(stereo partly drawn)", "activity change, negative = inhibition": "inactive: 3.32%"},
      {"smiles": "O=C(CCN1C(=O)/C(=C/c2ccccc2)SC1=S)NCCCN1CCOCC1", "activity change, negative = inhibition": "inactive: -15.5%"},
      {"smiles": "COc1ccccc1N1CCN(CC(O)COc2cccc3ccccc23)CC1", "note": "(stereo not drawn)", "activity change, negative = inhibition": "inactive: -25.6%"},
      {"smiles": "CC(=O)OC[C@]12CC[C@H]3[C@@](C)(CC[C@H]4C(C)(C)CCC[C@]34C)[C@@H]1C[C@H](C1=CC(=O)O[C@@H]1OC(C)=O)O2", "activity change, negative = inhibition": "inactive: -12.7%"},
      {"smiles": "O=C1OC[C@@H]2CCCN2C(=O)[C@H](CC(=O)N(CCO)Cc2ccccc2)C/C=C\\C[C@H]1Cc1ccc(F)cc1", "activity change, negative = inhibition": "inactive: 1.13%"},
      {"smiles": "COc1ccc(S(=O)(=O)N(C)C[C@H]2Oc3ccc(NS(=O)(=O)c4cn(C)cn4)cc3C(=O)N([C@H](C)CO)C[C@@H]2C)cc1", "activity change, negative = inhibition": "inactive: 8.33%"},
      {"smiles": "O=C(CSc1n[nH]c(=O)[nH]c1=O)N/N=C/C=C/c1ccccc1", "activity change, negative = inhibition": "inactive: 13.9%"},
      {"smiles": "OCCN(CCO)CC(O)COc1ccc(Br)cc1", "note": "(stereo not drawn)", "activity change, negative = inhibition": "inactive: 11.4%"},
      {"smiles": "CC(C)C(NC(=O)c1ccccc1F)C(=O)Nc1ccc2c(c1)OCO2", "note": "(stereo not drawn)", "activity change, negative = inhibition": "inactive: 13.5%"},
      {"smiles": "O=C(CCCN1C(=O)S/C(=C/C=C/c2ccccc2)C1=O)Nc1ccc(C(=O)O)cc1", "activity change, negative = inhibition": "inactive: 1.24%"},
      {"smiles": "CCC[C@@H]1C[C@@H](C(=O)N[C@@H](C2O[C@H](SC)[C@H](O)[C@@H](O)[C@H]2O)[C@H](C)Cl)N(C)C1", "note": "(stereo partly drawn)", "activity change, negative = inhibition": "inactive: 1.33%"},
      {"smiles": "CCOC(=O)[C@@H]1[C@H]2COc3cc(OC)ccc3[C@@H]2N2C(=O)N(c3cccc(C)c3)C(=O)[C@@]12C", "activity change, negative = inhibition": "inactive: 5.68%"}
    ]}
  ]
}
